# Experimental data taken from a collection of fitness landscapes (doi:10.1016/j.celrep.2020.107928).
# Over roughly 81,000 sequences, “one-hybrid fitness for binding NBS DNA” has its median near -0.1; the highest 2% begin near 0.36. The list shows a part of the results.
# B1: Caulobacter ParB omega fusion; a variant is named by its letters at X, in order, B8GW30 (parent)
# chain: MESVVVGEPGMSEGRRGLGRGLSALLGEVDAAPAQAPGEQLGGSREAPIEILQRNPDQPRRTFREEDLEDLSNSIREKGVLQPILVRPSPDTAGEYQIVAGERAWRAAQRAGLKTVPIMVRELDDLAVLEIGIIENVQRADLNVLEEALSYKVLMEKFERTQENIAQTIGKSXSHVANXMRLLXLPDEVQSYLVSGELTAXHARAIAAAADPVALAKQIIEGGLSVRETEALARKAPNLSAGKSKGGRPPRVKDTDTQALESDLSSVLGLDVSIDHRGSTGTLTITYATLEQLDDLCNRLTRGI
# Variants of: B1
# Assay: one-hybrid fitness for binding NBS DNA (the Noc-binding site; scaled: cognate 1, non-cognate 0); higher = stronger binding
# Details: with NBS DNA site
# Procedure, shortened: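 Bacterial one-hybrid selection in E. coli USO rpoZ- hisB- pyrF- with a HIS3 reporter carrying the site 19 bp from the promoter, screening Caulobacter ParB libraries with four specificity codons randomised (NNS). Cells grew 48 hours at 37°C on M9-minus-histidine plus 0.1 mM IPTG and 5 mM 3-AT. Plasmids before and after selection were Illumina-sequenced, three replicate libraries pooled, and variants under 10 reads dropped. Fitness is the log change in variant-to-wild-type read ratio, rescaled to cognate 1, non-cognate 0.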
row,Variant,one-hybrid fitness for binding NBS DNA
1,FNVV,≤ 0.2
2,LFPF,≤ 0.2
3,VKWV,≤ 0.2
4,RAHH,≤ 0.2
5,QCAH,0.255
6,YTTG,≤ 0.2
7,QSGD,≤ 0.2
8,RCAI,≤ 0.2
9,FEAL,≤ 0.2
10,KRTK,≤ 0.2
11,IKPR,≤ 0.2
12,AFVP,≤ 0.2
13,HMFN,≤ 0.2
14,KAHN,≤ 0.2
15,IYSL,≤ 0.2
16,RQFK,≤ 0.2
17,RTGC,≤ 0.2
18,LQFG,≤ 0.2
19,GIFS,≤ 0.2
20,NHRF,≤ 0.2
21,RQVD,≤ 0.2
22,YYRS,≤ 0.2
23,TPEQ,≤ 0.2
24,RQTR,0.497
25,DKPN,≤ 0.2

row,Variant,one-hybrid fitness for binding NBS DNA
1,DTYG,≤ 0.2
2,VSWT,≤ 0.2
3,VIIR,≤ 0.2
4,EHNM,≤ 0.2
5,CIST,≤ 0.2
6,YAMT,≤ 0.2
7,GCGG,≤ 0.2
8,RFHN,≤ 0.2
9,LRWR,≤ 0.2
10,MLLG,≤ 0.2
11,LLEN,≤ 0.2
12,SFCV,≤ 0.2
13,QKAT,0.543
14,CSWW,≤ 0.2
15,KTSC,≤ 0.2
16,CPKG,≤ 0.2
17,WSIQ,≤ 0.2
18,RFRM,≤ 0.2
19,TDWT,≤ 0.2
20,QKMK,≤ 0.2
21,TACQ,≤ 0.2
22,AILY,≤ 0.2
23,MRMY,≤ 0.2
24,QVTT,0.324
25,AEEL,≤ 0.2

row,Variant,one-hybrid fitness for binding NBS DNA
1,QTLC,≤ 0.2
2,RAGA,≤ 0.2
3,VDEG,≤ 0.2
4,TSRY,≤ 0.2
5,VPWM,≤ 0.2
6,TEMC,≤ 0.2
7,HDMS,≤ 0.2
8,KYMY,≤ 0.2
9,RADI,≤ 0.2
10,LQPG,≤ 0.2
11,CILV,≤ 0.2
12,SALQ,≤ 0.2
13,YLEN,≤ 0.2
14,GSAG,≤ 0.2
15,QLNE,≤ 0.2
16,AGRE,≤ 0.2
17,VRVV,≤ 0.2
18,GGPV,≤ 0.2
19,IGRM,≤ 0.2
20,HKNT,≤ 0.2
21,NIST,≤ 0.2
22,PHVW,≤ 0.2
23,AMRW,≤ 0.2
24,QANP,≤ 0.2
25,LHEN,≤ 0.2

row,Variant,one-hybrid fitness for binding NBS DNA
1,TLNK,≤ 0.2
2,SCNG,≤ 0.2
3,VHVQ,≤ 0.2
4,SPET,≤ 0.2
5,RTAT,0.499
6,TMAQ,≤ 0.2
7,TSPR,≤ 0.2
8,SPFD,≤ 0.2
9,CHPC,≤ 0.2
10,GTAH,≤ 0.2
11,QYNM,≤ 0.2
12,HAHL,≤ 0.2
13,SCQN,≤ 0.2
14,TKGM,≤ 0.2
15,WAQI,≤ 0.2
16,LLDH,≤ 0.2
17,FRIG,≤ 0.2
18,DRWC,≤ 0.2
19,HSYN,≤ 0.2
20,MSPY,≤ 0.2
21,TRAK,≤ 0.2
22,RTTR,0.571
